The structures appear in SMILES notation. The list shows a part of the results.

One experiment deals with HSkMC. Nature of the experiment: cytotoxicity call (relative viability < 0.9). Particulars: 10 µM.
A further experiment deals with HepG2. Nature of the experiment: cytotoxicity call (relative viability < 0.9). Particulars: 10 µM.
The subject of the next experiment is S. aureus RN4220. The experiment is described as follows: growth inhibition call (relative growth <= 0.2). Particulars: 50 µM.

For the molecule `C[C@@H]1CN([C@@H](C)CO)C(=O)c2cc(NC(=O)CCCCCC(=O)Nc3ccccc3N)ccc2O[C@@H]1CN(C)S(C)(=O)=O`, the cytotoxicity call in the experiment on HSkMC and with HepG2 was “inactive” in each case. Also, the growth inhibition call in the experiment on S. aureus RN4220 was “inactive”.

In the case of `COc1cc(C(=O)O)ccc1NC(=O)[C@@H]1N[C@@H](CC(C)(C)C)[C@](C#N)(c2ccc(Cl)cc2F)[C@H]1c1cccc(Cl)c1F`, the cytotoxicity call in the experiment with HSkMC was “active”. Also, in the experiment on HepG2, the cytotoxicity call was “inactive”. Besides, the growth inhibition call in the experiment with S. aureus RN4220 is “inactive”.

As to `C[C@H](CO)N1C[C@H](C)[C@@H](CN(C)S(=O)(=O)c2ccc(F)cc2)Oc2c(NC(=O)Nc3ccc(C(F)(F)F)cc3)cccc2C1=O`, the cytotoxicity call in the experiment with HSkMC and with HepG2 was “inactive” each time. The growth inhibition call in the experiment on S. aureus RN4220 is “inactive”.

In the case of `C=C/C=C/[C@@H]1C(=C)CN([C@@H](Cc2ccccc2)C(=O)OC)[C@H]1[C@@H](O)CCn1cc(-c2ccc(C(=O)NO)cc2)nn1`, the cytotoxicity call in the experiment with HSkMC and with HepG2 was “inactive” each time. For the same molecule, the growth inhibition call with S. aureus RN4220 is “inactive”.

For `COc1cc(/C=C/C(=O)N(C)CCN(C)C(=O)/C=C/c2cc(OC)c(OC)c(OC)c2)cc(OC)c1OC`, the cytotoxicity call in the experiment with HSkMC and in the experiment on HepG2 was “inactive” throughout. The growth inhibition call in the experiment on S. aureus RN4220 was “inactive”.

Consider `COc1ccc(NC(=O)Nc2cccc3c2O[C@@H](CN(C)Cc2ccc(Cl)c(Cl)c2)[C@H](C)CN([C@H](C)CO)C3=O)cc1`, for which the cytotoxicity call in the experiment on HSkMC and in the experiment with HepG2 was “inactive” in each case. Further, the growth inhibition call in the experiment on S. aureus RN4220 is “inactive”.

With `Cc1noc(C)c1NC(=O)Nc1ccc2c(c1)C(=O)N([C@H](C)CO)C[C@H](C)[C@@H](CN(C)Cc1ccncc1)OCCCC[C@@H](C)O2`, the cytotoxicity call with HSkMC and in the experiment with HepG2 was “inactive” throughout. Also, in the experiment with S. aureus RN4220, the growth inhibition call was “inactive”.

For `COC(=O)[C@@H](N)c1cccc(Cl)c1`, the cytotoxicity call in the experiment with HSkMC and with HepG2 was “inactive” each time. Besides, the growth inhibition call in the experiment with S. aureus RN4220 was “inactive”.

With `C[C@H](CO)N1C[C@H](C)[C@H](CN(C)S(C)(=O)=O)Oc2ccc(NS(=O)(=O)c3cccs3)cc2C1=O`, the cytotoxicity call in the experiment on HSkMC and with HepG2 was “inactive” each time. Also, the growth inhibition call in the experiment on S. aureus RN4220 is “inactive”.

Consider `Cc1cc(C)c2nc(-c3ccccn3)cc(C(=O)Nc3ccc(S(=O)(=O)Nc4onc(C)c4C)cc3)c2c1`, for which the cytotoxicity call in the experiment with HSkMC and in the experiment with HepG2 was “inactive” in each case. The growth inhibition call with S. aureus RN4220 was “inactive”.

With `C[C@@H]1CCCCO[C@H](CN(C)S(=O)(=O)c2ccc(Cl)cc2)[C@H](C)CN([C@@H](C)CO)C(=O)c2cc(NS(=O)(=O)c3ccc(Cl)cc3)ccc2O1`, the cytotoxicity call in the experiment on HSkMC was “inactive”. For the same molecule, the cytotoxicity call in the experiment with HepG2 was “active”. The growth inhibition call in the experiment on S. aureus RN4220 is “inactive”.

As for `COC[C@@H](C)NC(=O)C1CN(C(C)=O)C1`, the cytotoxicity call with HSkMC and with HepG2 was “inactive” throughout. Further, the growth inhibition call in the experiment with S. aureus RN4220 was “inactive”.

`C[C@@H]1CN([C@@H](C)CO)C(=O)c2cc(NS(=O)(=O)c3ccccc3)ccc2O[C@@H]1CN(C)S(=O)(=O)c1cn(C)cn1`: the cytotoxicity call in the experiment on HSkMC and with HepG2 was “inactive” in each case. For the same molecule, the growth inhibition call in the experiment with S. aureus RN4220 was “inactive”.

With `O=S1(=O)CCC(O)CC1`, the cytotoxicity call in the experiment on HSkMC and in the experiment on HepG2 was “inactive” in each case. Besides, the growth inhibition call with S. aureus RN4220 was “inactive”.

In the case of `CC(C)NC(=O)N(C)C[C@H]1OCCCC[C@@H](C)Oc2ccc(NS(C)(=O)=O)cc2C(=O)N([C@H](C)CO)C[C@@H]1C`, the cytotoxicity call in the experiment with HSkMC and with HepG2 was “inactive” in each case. Further, the growth inhibition call in the experiment with S. aureus RN4220 is “inactive”.

For the molecule `CN1C(=O)c2cc(NC(=O)C3CCOCC3)ccc2OC[C@@H]2O[C@@H](CC(=O)NCc3ccccc3F)CC[C@@H]21`, the cytotoxicity call in the experiment on HSkMC and with HepG2 was “inactive” in each case. Moreover, the growth inhibition call in the experiment with S. aureus RN4220 was “inactive”.

As to `COc1ccc(OC)c([C@H]2C(C(=O)c3c(C)nc4c(C)cccn34)=C(O)C(=O)N2CCN2CCOCC2)c1`, the cytotoxicity call in the experiment on HSkMC and in the experiment on HepG2 was “inactive” throughout. The growth inhibition call in the experiment on S. aureus RN4220 is “inactive”.

`COc1ccc(S(=O)(=O)Nc2ccc3c(c2)C(=O)N([C@H](C)CO)C[C@H](C)[C@@H](CN(C)S(=O)(=O)c2cn(C)cn2)OCCCC[C@H](C)O3)cc1`: the cytotoxicity call in the experiment on HSkMC and in the experiment with HepG2 was “inactive” in each case. The growth inhibition call with S. aureus RN4220 is “inactive”.

For the molecule `NCc1ccccc1Sc1ccccc1CO`, the cytotoxicity call in the experiment on HSkMC and in the experiment on HepG2 was “inactive” each time. Further, the growth inhibition call with S. aureus RN4220 was “inactive”.

`Cc1noc(C)c1S(=O)(=O)Nc1ccc2c(c1)CC(=O)N([C@@H](C)CO)C[C@H](C)[C@@H](CN(C)Cc1ccccc1)O2`: the cytotoxicity call with HSkMC and in the experiment on HepG2 was “inactive” in each case. In addition, the growth inhibition call with S. aureus RN4220 is “inactive”.

As to `C[C@@H]1CN([C@H](C)CO)C(=O)c2cccc(NC(=O)CCCCCC(=O)Nc3ccccc3N)c2O[C@@H]1CN(C)C(=O)Nc1ccccc1`, the cytotoxicity call in the experiment on HSkMC and in the experiment on HepG2 was “inactive” each time. The growth inhibition call in the experiment with S. aureus RN4220 is “inactive”.

For the molecule `COc1ccc(NC(=O)N(C)C[C@@H]2Oc3ccc(NC(=O)Cn4cnnn4)cc3CC(=O)N([C@H](C)CO)C[C@H]2C)cc1`, the cytotoxicity call in the experiment on HSkMC and with HepG2 was “inactive” in each case. The growth inhibition call with S. aureus RN4220 was “inactive”.

Turning to `COc1ccc(S(=O)(=O)Nc2ccc3c(c2)CC(=O)N([C@@H](C)CO)C[C@@H](C)[C@@H](CN(C)C(=O)NC(C)C)O3)cc1`, the cytotoxicity call with HSkMC and with HepG2 was “inactive” in each case. The growth inhibition call with S. aureus RN4220 is “inactive”.

For the molecule `COc1ccc2c3c(n(c2c1)C)[C@@H](CO)N(C[C@]13CCN(CC1)C(=O)Nc1cccc(c1)F)S(=O)(=O)C`, the cytotoxicity call in the experiment with HSkMC and in the experiment with HepG2 was “inactive” in each case. For the same molecule, the growth inhibition call in the experiment on S. aureus RN4220 was “inactive”.

In the case of `COCC#Cc1cnc2c(c1)C(=O)N([C@H](C)CO)C[C@H](C)[C@H](CN(C)S(=O)(=O)c1cn(C)cn1)O2`, the cytotoxicity call in the experiment on HSkMC and in the experiment with HepG2 was “inactive” in each case. Also, the growth inhibition call in the experiment on S. aureus RN4220 is “inactive”.

For the molecule `C[C@@H]1CN([C@@H](C)CO)C(=O)c2cc(NC(=O)Cc3ccccc3)ccc2O[C@@H](C)CCCCO[C@@H]1CN(C)C(=O)Nc1ccccc1`, the cytotoxicity call in the experiment with HSkMC and in the experiment with HepG2 was “inactive” in each case. Moreover, the growth inhibition call in the experiment with S. aureus RN4220 was “inactive”.

Turning to `C[C@H]1CN([C@@H](C)CO)S(=O)(=O)c2ccc(C#CCC3CCCC3)cc2O[C@@H]1CN(C)C(=O)CN(C)C`, the cytotoxicity call in the experiment with HSkMC and with HepG2 was “inactive” in each case. The growth inhibition call with S. aureus RN4220 is “inactive”.

As for `O=C(C[C@@H]1CC[C@H]2NC[C@@H](O)COC[C@@H]2O1)NCCN1CCCC1`, the cytotoxicity call in the experiment on HSkMC (human skeletal muscle cells) and in the experiment with HepG2 was “inactive” in each case. For the same molecule, in the experiment on S. aureus RN4220, the growth inhibition call is “inactive”.

For the origin of these results see the antibiotic and cytotoxicity screens of Wong et al. (2023).
